Test results as given in the supplement of paper PMC4967469.
The IC50 comes from the fitted curve, where viability falls to half of the control; a limit (>, <) means that the fit lies beyond the doses tested. For AUC the same curve is integrated over the 256-fold range of doses and scaled to a fraction; the more sensitive the line, the further below 1. The top dose, if marked as inferred, was derived from the fitted curves, not read from the paper. For some assays here: Drugs with an entry number were screened twice under separate entries, and the two screens often disagree.

Experiments:
Test in all cases: Viability of human cancer cell lines after 72 h of drug (GDSC screen)
AZD6482 = compound: Cc1cc([C@@H](C)Nc2ccccc2C(=O)O)c2nc(N3CCOCC3)cc(=O)n2c1 [AZD6482]
Protocol: (§1)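 Human cancer cell lines in 384-well plates, medium with 10% serum, drug for 72 h over a 256-fold dose range (nine 2-fold or five 4-fold steps up to the top dose). Adherent lines were fixed and stained with the nucleic acid dye Syto60, suspension lines read with resazurin; signal relative to control wells, capped at 0 and 100%. One two-parameter sigmoid per drug and line, fitted in a mixed model over all curves with the slope shared within a line.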

BMN-673 = compound: Cn1ncnc1[C@H]1c2n[nH]c(=O)c3cc(F)cc(c23)N[C@@H]1c1ccc(F)cc1 [BMN-673]; settings: top dose 10 µM; top dose inferred
Protocol: as §1

MLN4924 = compound: NS(=O)(=O)OC[C@@H]1C[C@@H](n2ccc3c(N[C@H]4CCc5ccccc54)ncnc32)C[C@@H]1O [MLN4924]; settings: top dose 1 µM; top dose inferred
Protocol: as §1

[1] = top dose 5.12 µM, screen: GDSC drug entry 156
[2] = top dose 5 µM, screen: GDSC drug entry 1066, top dose inferred

Row | Cell Line | AUC (AZD6482; [1]) | IC50 (AZD6482; [1]) | AUC (BMN-673) | IC50 (BMN-673) | AUC (MLN4924) | IC50 (MLN4924) | AUC (AZD6482; [2]) | IC50 (AZD6482; [2])
1 | RMG-I (ovary, adherent) | 0.871 | > 5.12 µM | 0.934 | > 10 µM | 0.83 | 0.774 µM | – | –
2 | ROS-50 (B-cell leukaemia, suspension) | 0.965 | > 5.12 µM | 0.982 | > 10 µM | 0.974 | > 1 µM | 0.96 | > 5 µM
3 | RPMI-2650 (head and neck, adherent) | 0.893 | > 5.12 µM | 0.603 | 1.23 µM | 0.895 | > 1 µM | 0.956 | > 5 µM
4 | RPMI-6666 (Hodgkin lymphoma, suspension) | 0.577 | 0.544 µM | 0.742 | 3.6 µM | 0.806 | 0.635 µM | 0.707 | 1.37 µM
5 | RT-112 (bladder, adherent) | 0.949 | > 5.12 µM | 0.952 | > 10 µM | 0.914 | > 1 µM | 0.923 | > 5 µM
6 | Raji (Burkitt lymphoma, suspension) | 0.97 | > 5.12 µM | 0.605 | 1.19 µM | 0.835 | 0.598 µM | 0.983 | > 5 µM
7 | Ramos-2G6-4C10 (Burkitt lymphoma, suspension) | 0.937 | > 5.12 µM | 0.96 | > 10 µM | 0.935 | > 1 µM | 0.826 | 2.46 µM
8 | SAS (head and neck, adherent) | 0.983 | > 5.12 µM | 0.728 | 3.03 µM | 0.549 | 0.0865 µM | 0.85 | 4.46 µM
9 | SBC-5 (small cell lung carcinoma, adherent) | 0.917 | > 5.12 µM | 0.674 | 1.72 µM | 0.824 | 0.454 µM | 0.928 | > 5 µM
10 | SCC-9 (head and neck, adherent) | 0.51 | 0.343 µM | 0.907 | > 10 µM | 0.979 | > 1 µM | 0.619 | 0.731 µM
11 | SCC-25 (head and neck, adherent) | 0.941 | > 5.12 µM | 0.968 | > 10 µM | 0.938 | > 1 µM | 0.83 | 3.71 µM
12 | SCH (stomach, adherent) | 0.988 | > 5.12 µM | 0.887 | > 10 µM | 0.987 | > 1 µM | 0.858 | 4.63 µM
13 | SF539 (glioma, adherent) | 0.958 | > 5.12 µM | 0.718 | 2.4 µM | 0.648 | 0.153 µM | 0.935 | > 5 µM
14 | SISO (cervix, adherent) | 0.907 | > 5.12 µM | 0.702 | 2.25 µM | 0.616 | 0.128 µM | – | –
15 | SK-HEP-1 (liver, adherent) | 0.916 | > 5.12 µM | 0.772 | 3.62 µM | 0.642 | 0.15 µM | 0.947 | > 5 µM
16 | SK-MEL-24 (melanoma, adherent) | 0.978 | > 5.12 µM | 0.816 | 7.13 µM | 0.88 | > 1 µM | – | –
